Reference: publication PMC9677703
No constants are given. Whether binding was seen depends on the method and setting. For some assays here: In cells and extracts the contact can be indirect. Some binding calls cover weakened binding; strength is not graded here. For some assays here: Sequences can lack the tags named with a protein. Blank lines part the entries; values can stand above or below the binder they belong to.

Legend:
FGF12-SBP [1] = target: T1, FGF12-SBP (UniProt P61328); assay: pull-down; lysate of U2OS-FGF12-SBP cells incubated with streptavidin agarose; eluted with Laemmli sample buffer; western blotting; U2OS cells as control
T1 sequence: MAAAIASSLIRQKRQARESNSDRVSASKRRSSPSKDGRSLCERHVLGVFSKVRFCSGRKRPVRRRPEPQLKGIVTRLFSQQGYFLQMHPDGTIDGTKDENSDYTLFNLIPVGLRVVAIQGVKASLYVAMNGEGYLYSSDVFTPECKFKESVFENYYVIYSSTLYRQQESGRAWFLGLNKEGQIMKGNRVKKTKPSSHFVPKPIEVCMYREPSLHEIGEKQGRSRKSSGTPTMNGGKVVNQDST

FGF12-SBP [2] = target: T1, FGF12-SBP; assay: native gel or EMSA; FGF12-SBP complexes from U2OS-FGF12-SBP lysate on streptavidin agarose, eluted with 4 mM biotin, 2D BN-PAGE (4–13%) / SDS-PAGE, western blotting
[3] = target: T2, FGF12 (endogenous, HEK 293 cells lacking ectopic FGF12) (human (endogenous in HEK 293)) (UniProt P61328); assay: proximity ligation; in situ PLA in fixed, permeabilized HEK 293 cells lacking ectopic FGF12, rabbit anti-FGF12 and mouse anti-NOLC1 or anti-TCOF1; also after siRNA against NOLC1 or TCOF1
T2 sequence: T1 sequence

FGF11-mGFP-myc = target: T3, FGF11-mGFP-myc (UniProt Q92914); assay: co-IP; the paper calls it pull-down: lysates of U2OS cells stably expressing FHF-mGFP-myc incubated with anti c-myc magnetic beads / anti-myc agarose; western blotting (GFP, NOLC1, TCOF1); U2OS cells as control
T3 sequence: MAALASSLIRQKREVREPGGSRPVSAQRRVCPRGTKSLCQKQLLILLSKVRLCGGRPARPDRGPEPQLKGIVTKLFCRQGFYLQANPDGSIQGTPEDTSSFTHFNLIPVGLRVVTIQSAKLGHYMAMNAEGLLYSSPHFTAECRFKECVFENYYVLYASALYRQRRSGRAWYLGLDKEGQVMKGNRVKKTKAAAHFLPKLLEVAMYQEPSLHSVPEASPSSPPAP

FGF12-mGFP-myc [4] = target: T4, FGF12-mGFP-myc (UniProt P61328); assay: as above
T4 sequence: T1 sequence

FGF13-mGFP-myc = target: T5, FGF13-mGFP-myc (UniProt Q92913); assay: as above
T5 sequence: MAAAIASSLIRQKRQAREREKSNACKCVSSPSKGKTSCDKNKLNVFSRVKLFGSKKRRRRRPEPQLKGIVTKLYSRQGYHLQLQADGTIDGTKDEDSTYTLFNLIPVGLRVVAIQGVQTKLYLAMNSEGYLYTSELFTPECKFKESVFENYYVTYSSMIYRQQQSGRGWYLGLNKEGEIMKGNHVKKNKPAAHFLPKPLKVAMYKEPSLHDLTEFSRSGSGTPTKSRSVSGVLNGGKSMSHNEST

FGF14-mGFP-myc = target: T6, FGF14-mGFP-myc (UniProt Q92915); assay: as above
T6 sequence: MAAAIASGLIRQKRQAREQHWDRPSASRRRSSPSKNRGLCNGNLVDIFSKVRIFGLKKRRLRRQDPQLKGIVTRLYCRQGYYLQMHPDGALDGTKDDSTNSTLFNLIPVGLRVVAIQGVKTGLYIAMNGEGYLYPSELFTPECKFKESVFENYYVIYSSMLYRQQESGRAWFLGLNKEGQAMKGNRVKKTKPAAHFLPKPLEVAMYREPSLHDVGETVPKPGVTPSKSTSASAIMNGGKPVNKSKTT

FGF12-mGFP-myc [5] = target: T4, FGF12-mGFP-myc; assay: proximity ligation; in situ PLA (Duolink) in fixed, permeabilized U2OS-FGF12-mGFP-myc cells with antibodies against NOLC1 and FGF12, TCOF1 and FGF12 or NOLC1 and TCOF1; also after siRNA against NOLC1 or TCOF1 or control siRNA
[6] = target: T7, recombinant His-tagged FGF12 (UniProt P61328); assay: pull-down; recombinant FGF12-His or FGF12Δ-His bound to Ni Sepharose (1 h, 4 °C), incubated with U2OS cell lysate (0.15 M KCl, 40 mM Tris, 1% NP-40, 1 mM EDTA, pH 7.2) overnight at 4 °C; western blotting; also with nuclease-treated lysate (no effect); only the target purified
T7 sequence: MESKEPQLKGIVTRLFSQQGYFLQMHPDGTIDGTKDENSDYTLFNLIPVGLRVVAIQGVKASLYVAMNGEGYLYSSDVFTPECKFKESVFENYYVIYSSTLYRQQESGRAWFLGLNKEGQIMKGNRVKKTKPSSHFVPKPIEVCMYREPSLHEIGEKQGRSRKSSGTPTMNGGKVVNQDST

[7] = target: T7, recombinant His-tagged FGF12; assay: condition: only U2OS lysate treated with calf intestinal alkaline phosphatase (CIP); pull-down; recombinant FGF12-His bound to Ni Sepharose, U2OS cell lysate treated with calf intestinal alkaline phosphatase (CIP); western blotting; only the target purified

binding (FGF12-SBP [1]): binds
binding (FGF12-SBP [2]): binds
binding [3]: binds
binding (FGF11-mGFP-myc): no binding
binding (FGF12-mGFP-myc [4]): binds
binding (FGF13-mGFP-myc): no binding
binding (FGF14-mGFP-myc): no binding
binding (FGF12-mGFP-myc [5]): binds
binding [6]: binds
B1: treacle ribosome biogenesis factor 1 (protein, UniProt Q13428 1-1488)
chain: MAEARKRRELLPLIYHHLLRAGYVRAAREVKEQSGQKCFLAQPVTLLDIYTHWQQTSELGRKRKAEEDAALQAKKTRVSDPISTSESSEEEEEAEAETAKATPRLASTNSSVLGADLPSSMKEKAKAETEKAGKTGNSMPHPATGKTVANLLSGKSPRKSAEPSANTTLVSETEEEGSVPAFGAAAKPGMVSAGQADSSSEDTSSSSDETDVEGKPSVKPAQVKASSVSTKESPARKAAPAPGKVGDVTPQVKGGALPPAKRAKKPEEESESSEEGSESEEEAPAGTRSQVKASEKILQVRAASAPAKGTPGKGATPAPPGKAGAVASQTKAGKPEEDSESSSEESSDSEEETPAAKALLQAKASGKTSQVGAASAPAKESPRKGAAPAPPGKTGPAVAKAQAGKREEDSQSSSEESDSEEEAPAQAKPSGKAPQVRAASAPAKESPRKGAAPAPPRKTGPAAAQVQVGKQEEDSRSSSEESDSDREALAAMNAAQVKPLGKSPQVKPASTMGMGPLGKGAGPVPPGKVGPATPSAQVGKWEEDSESSSEESSDSSDGEVPTAVAPAQEKSLGNILQAKPTSSPAKGPPQKAGPVAVQVKAEKPMDNSESSEESSDSADSEEAPAAMTAAQAKPALKIPQTKACPKKTNTTASAKVAPVRVGTQAPRKAGTATSPAGSSPAVAGGTQRPAEDSSSSEESDSEEEKTGLAVTVGQAKSVGKGLQVKAASVPVKGSLGQGTAPVLPGKTGPTVTQVKAEKQEDSESSEEESDSEEAAASPAQVKTSVKKTQAKANPAAARAPSAKGTISAPGKVVTAAAQAKQRSPSKVKPPVRNPQNSTVLARGPASVPSVGKAVATAAQAQTGPEEDSGSSEEESDSEEEAETLAQVKPSGKTHQIRAALAPAKESPRKGAAPTPPGKTGPSAAQAGKQDDSGSSSEESDSDGEAPAAVTSAQVIKPPLIFVDPNRSPAGPAATPAQAQAASTPRKARASESTARSSSSESEDEDVIPATQCLTPGIRTNVVTMPTAHPRIAPKASMAGASSSKESSRISDGKKQEGPATQVSKKNPASLPLTQAALKVLAQKASEAQPPVARTQPSSGVDSAVGTLPATSPQSTSVQAKGTNKLRKPKLPEVQQATKAPESSDDSEDSSDSSSGSEEDGEGPQGAKSAHTLGPTPSRTETLVEETAAESSEDDVVAPSQSLLSGYMTPGLTPANSQASKATPKLDSSPSVSSTLAAKDDPDGKQEAKPQQAAGMLSPKTGGKEAASGTTPQKSRKPKKGAGNPQASTLALQSNITQCLLGQPWPLNEAQVQASVVKVLTELLEQERKKVVDTTKESSRKGWESRKRKLSGDQPAARTPRSKKKKKLGAGEGGEASVSPEKTSTTSKGKAKRDKASGDVKEKKGKGSLGSQGAKDEPEEELQKGMGTVEGGDQSNPKSKKEKKKSDKRKKDKEKKEKKKKAKKASTKDSESPSQKKKKKKKKTAEQTV
modifications: heavily phosphorylated (sites not given)

binding (FGF12-SBP [1]): binds
binding (FGF12-SBP [2]): binds
binding [3]: binds
binding (FGF11-mGFP-myc): binds
binding (FGF12-mGFP-myc [4]): binds
binding (FGF13-mGFP-myc): binds
binding (FGF14-mGFP-myc): binds
binding (FGF12-mGFP-myc [5]): binds
binding [7]: no binding
binding [6]: binds
B2: nucleolar and coiled-body phosphoprotein 1 (protein, UniProt Q14978 1-699)
chain: MADAGIRRVVPSDLYPLVLGFLRDNQLSEVANKFAKATGATQQDANASSLLDIYSFWLKSAKVPERKLQANGPVAKKAKKKASSSDSEDSSEEEEEVQGPPAKKAAVPAKRVGLPPGKAAAKASESSSSEESSDDDDEEDQKKQPVQKGVKPQAKAAKAPPKKAKSSDSDSDSSSEDEPPKNQKPKITPVTVKAQTKAPPKPARAAPKIANGKAASSSSSSSSSSSSDDSEEEKAAATPKKTVPKKQVVAKAPVKAATTPTRKSSSSEDSSSDEEEEQKKPMKNKPGPYSSVPPPSAPPPKKSLGTQPPKKAVEKQQPVESSEDSSDESDSSSEEEKKPPTKAVVSKATTKPPPAKKAAESSSDSSDSDSSEDDEAPSKPAGTTKNSSNKPAVTTKSPAVKPAAAPKQPVGGGQKLLTRKADSSSSEEESSSSEEEKTKKMVATTKPKATAKAALSLPAKQAPQGSRDSSSDSDSSSSEEEEEKTSKSAVKKKPQKVAGGAAPSKPASAKKGKAESSNSSSSDDSSEEEEEKLKGKGSPRPQAPKANGTSALTAQNGKAAKNSEEEEEEKKKAAVVVSKSGSLKKRKQNEAAKEAETPQAKKIKLQTPNTFPKRKKGEKRASSPFRRVREEEIEVDSRVADNSFDAKRGAAGDWGERANQVLKFTKGKSFRHEKTKKKRGSYRGGSISVQVNSIKFDSE
modifications: heavily phosphorylated (sites not given)

binding [6]: binds
B3: Thyroid hormone receptor-associated protein 3 (protein, UniProt Q9Y2W1 1-955)
chain: MSKTNKSKSGSRSSRSRSASRSRSRSFSKSRSRSRSLSRSRKRRLSSRSRSRSYSPAHNRERNHPRVYQNRDFRGHNRGYRRPYYFRGRNRGFYPWGQYNRGGYGNYRSNWQNYRQAYSPRRGRSRSRSPKRRSPSPRSRSHSRNSDKSSSDRSRRSSSSRSSSNHSRVESSKRKSAKEKKSSSKDSRPSQAAGDNQGDEAKEQTFSGGTSQDTKASESSKPWPDATYGTGSASRASAVSELSPRERSPALKSPLQSVVVRRRSPRPSPVPKPSPPLSSTSQMGSTLPSGAGYQSGTHQGQFDHGSGSLSPSKKSPVGKSPPSTGSTYGSSQKEESAASGGAAYTKRYLEEQKTENGKDKEQKQTNTDKEKIKEKGSFSDTGLGDGKMKSDSFAPKTDSEKPFRGSQSPKRYKLRDDFEKKMADFHKEEMDDQDKDKAKGRKESEFDDEPKFMSKVIGANKNQEEEKSGKWEGLVYAPPGKEKQRKTEELEEESFPERSKKEDRGKRSEGGHRGFVPEKNFRVTAYKAVQEKSSSPPPRKTSESRDKLGAKGDFPTGKSSFSITREAQVNVRMDSFDEDLARPSGLLAQERKLCRDLVHSNKKEQEFRSIFQHIQSAQSQRSPSELFAQHIVTIVHHVKEHHFGSSGMTLHERFTKYLKRGTEQEAAKNKKSPEIHRRIDISPSTFRKHGLAHDEMKSPREPGYKAEGKYKDDPVDLRLDIERRKKHKERDLKRGKSRESVDSRDSSHSRERSAEKTEKTHKGSKKQKKHRRARDRSRSSSSSSQSSHSYKAEEYTEETEEREESTTGFDKSRLGTKDFVGPSERGGGRARGTFQFRARGRGWGRGNYSGNNNNNSNNDFQKRNREEEWDPEYTPKSKKYYLHDDREGEGSDKWVSRGRGRGAFPRGRGRFMFRKSSTSPKWAHDKFSGEEGEIEDDESGTENREEKDNIQPTTE
